Assay results: the supplement of paper PMC10126150
Sequences with one replicate were seen in a single cluster, so their values are uncertain.

System: ATP
Assay: switch fluorescence ratio, 500 uM ATP over buffer (Cy3 cluster intensity, sum of 5 cycles each) (fold (ratio)); higher = stronger signal-on switching upon ATP binding; sequences stand for … in TCGTCGGCAGCGTCAGATGTGTATAAGAGACAGTTTTTTTTTTTTTTTTTTTTTTTTT…TC
Conditions: aptamer strand: ATP DNA aptamer (quencher-CACCTGGGGGAGTATTGCGGAGGAAGG + anchor), 100 nM annealed; ATP concentration: 500 uM; one replicate
Method in brief: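 Clusters carrying Cy3-labelled switching strands on a modified Illumina MiSeq flow-cell were annealed to 100 nM quencher-labelled ATP aptamer and imaged in selection buffer. They were imaged again after 15 min with 500 uM ATP at 22 °C, over five buffer/ATP cycles with NaOH stripping and re-annealing in between. For each cluster, the fluorescence ratio is the summed Cy3 intensity of the target cycles divided by that of the buffer cycles, averaged per switch-domain sequence. Clusters outside 100-1000 RFU were left out.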
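Also: ATP exposure 15 min at 22 °C before imaging.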

Sequence	switch fluorescence ratio
TGCGTAACGG	1.01
CGCGGGAGCT	1.06
GGTGGACGCA	0.992
TCCAGGGG	2.4
CTGGCTTAGC	1.02
GATACGAGGG	1.05
TCGAGGGT	0.993
GTAATATCCG	1.02
AGTCGGTCAC	1.01
TAAGTCTATT	1.03
TATCCTTGAG	1.06
GATTTAGGAG	1.01
TTGTCCGATT	0.973
ACATGAATGT	1.02
TAACATTATT	0.983
AGTCAGGGAC	1
GGAGGAAGCT	1.01
GAAGTCGGA	1.03
TGTAACCCGG	0.993
GACTCAACGA	1.13
CGGCACTGAA	0.995
ATCCAGACG	0.972
TTTGCTAGG	1.04

Sequence	switch fluorescence ratio
TATCCCATGA	0.959
GTGATGAACT	1.02
GGGACTTACA	1.24
GAATGATACG	0.964
GTCGAGTCGT	1.03
AATGGCTATG	1.02
TTAATACTGG	1.01
CAGCTATTAT	0.968
AGGATAGGTC	0.955
TGGGGGCACC	1
CTGATAAGGG	1.01
CCGATATCCA	0.997
AGGAGAGAGA	1.02
GGACGAGGTA	1.04
GGCGGAGGAG	0.985
ATGAGCGCCA	1.04
CTTCAGTCTG	0.979
TTCGTAGAGA	1
GATCGTTAGG	0.985
CGTTAGAGGC	1.01
CCGCCTCAGG	3.72
TTAAAGAGCA	0.974
CCTCCCCAGC	2.55

Sequence	switch fluorescence ratio
ACACCCCCTT	1.56
AACCGGGGAT	1
GGGATATTG	0.957
AAGTGACAAA	1.06
ACCACTGTCG	1.03
TGATCGGTTT	0.999
CTAGGATGCG	1.02
AGTCGGTCTC	1
TCAACATTTA	0.968
GCTCAAACAT	1.03
CTCAGGTA	1.01
GACATAAAGG	0.963
GGGAGGAAGT	0.996
GGGAATAGGA	0.977
TTAGCCTGGA	0.98
CGGCGGGAAA	0.983
TCAGGAACT	1.05
CCACTTGTCG	1.08
GAGATGATTA	1.01
CGCTGCAGCG	1
TAGTAGATGG	1.03
CCGGGGGGA	1.12
GCGAGAGGCG	1.01

Sequence	switch fluorescence ratio
CCACGCTAAA	2.02
TTCGAAAGGG	1.02
CTGATCGCCC	1.73
GCAACACGGG	1.1
AGATAACGCT	0.996
TTACACTGCG	1.05
GCTTGTTTAT	1.47
CGCTAATAAA	1.09
ATAGCCCCGA	1.02
GGGTTGCACC	0.961
GTGTAGCGGG	0.992
GGTATAGCGG	0.943
TACTTGCTAA	1.04
CAAGACAAGC	1.08
ACAGCTGTCT	0.999
AGGTCATGCT	1.01
ATATCGGTA	0.994
GGAGTTAACG	0.911
GGGATTGTAT	0.965
TTCGAGGGGT	1.03
AGTCCGGAGG	1.05
TGTTACTG	1.02
GAGCGATG	1.1

Sequence	switch fluorescence ratio
TGTGTCCAAG	0.975
CCTTGCGGTT	1.14
ACCTTGAGAC	1.07
CTCCCTAAAT	1.23
GCAAGTCCTC	1.06
TTTAGGGGCA	0.985
CTTAACCAAC	1.15
TTAATCATCC	1.05
CCCTTGTTGG	0.991
ATTTGATTTT	1
CAGCACTCAA	1.04
AGTGTAGTGC	1.04
CATTCACTCC	1.17
ATAAACCGTT	1.05
ATAGCGAGG	1.17
TTTATCTTGC	1.07
CGTTAATAAT	0.985
GTTAGGTAAC	0.996
CGGCGATCTA	1
ATATAGTCCC	1.1
TTGGTCT	0.954
AGTAGGTTCC	0.991
GTTGGAGGG	1

Sequence	switch fluorescence ratio
ACGGCGTCTT	1.02
GTCTCAAGAA	0.971
GAAATTCATC	0.971
AGAGCCAGTT	0.956
GTGATTGTGG	0.982
GGCAGAGGTC	0.962
CAAGTAGGAA	1.01
TACTTCCGGA	1.08
GTGGTCCAAA	0.971
GTTTGTCGGC	0.893
GTACTCGACA	1.14
TTCAGTTTAC	1.01
CGTCCGTCCT	0.985
GAGATGCTTT	1.04
GTCTACACAT	0.976
AGAATTATTC	0.972
TACCACGAGC	1.03
TCCTGGCCA	1
ACGATTCCCG	1.02
GAAGGCGGTA	0.992
TAACGGGTTC	1.01
CTATCTGCAT	1.41
TCTGTCATCA	1.01

Sequence	switch fluorescence ratio
GATAATCCAT	0.966
CCTTTGGCGC	1.19
CGGAGCTCAT	2.11
GTCTCAGGGC	1.01
GATGCAACTT	1.03
AGCACCCTTT	0.977
GAGGAATCCG	1.05
GAAAATGGTT	0.997
CATTCAAACC	1.09
CTTGTATCCG	0.964
TAAGTTAAGA	1.05
CCGTATGGCA	1.03
ACAAAATCTC	1.05
ACACAAAAGG	1
GGATCCCTTA	1.02
GGCGGCGATT	1.02
GCCCTCTTCC	1.25
GAAGCAAGAA	2.33
CCTAACTTCG	1.26
ATGGCGAGTA	0.949
